At least one structure is not confirmed: it was looked up by name or label, or the drawing left a doubt. Residues, ends and D or L forms follow the SMILES beside them. *: point of attachment. X13 = Cc1cc(COC(=O)N(C)Cc2ccc(-c3[nH]c4cc(F)cc5c4c3CCNC5=O)cc2)cc(C)c1S*; X10 = Cc1cc(COC(=O)N(C)Cc2ccc(-c3[nH]c4cc(F)cc5c4c3CCNC5=O)cc2)ccc1S*; X15 = Cc1cc(S*)ccc1COC(=O)N(C)Cc1ccc(-c2[nH]c3cc(F)cc4c3c2CCNC4=O)cc1; X12 = C[C@H](COC(=O)N(C)Cc1ccc(-c2[nH]c3cc(F)cc4c3c2CCNC4=O)cc1)S*; X9 = C[C@@H](COC(=O)N(C)Cc1ccc(-c2[nH]c3cc(F)cc4c3c2CCNC4=O)cc1)S*
Test system: PARP
Experiment: Elisa PARylation assay in (BRCA−/−) DLD-1 cells, 16 h
Format: cell-based, Human
Conditions: pH 7.4, (BRCA−/−) DLD-1 cells, read-out: IC50 Elisa PARP Inhibition(nM) pH 7.4 (BRCA−/−) DLD-1 cells, 16 h

| SMILES | IC50 |
| --- | --- |
| CC(C)C[C@H](NC(=O)[C@H](Cc1ccc(O)cc1)NC(=O)[C@H](C)NC(=O)[C@H](CCCNC(=N)N)NC(=O)[C@H](Cc1c[nH]c2ccccc12)NC(=O)[C@@H]1CCCN1C(=O)[C@H](CC(N)=O)NC(=O)[C@H](CCC(N)=O)NC(=O)[C@H](CC(=O)O)NC(=O)[C@H](CC(=O)O)NC(=O)[C@H](C)N)C(=O)N[C@@H](CC(=O)O)C(=O)N[C@@H](CC(C)C)C(=O)N[C@@H](CC(C)C)C(=O)N[C@@H](Cc1ccccc1)C(=O)N1CCC[C@H]1C(=O)N[C@H](C(=O)N[C@@H](CC(=O)O)C(=O)N[C@H](C(=O)N[C@@H](CC(C)C)C(=O)N[C@@H](CC(C)C)C(=O)N[C@@H](CC(C)C)C(=O)N[C@@H](CC(=O)O)C(=O)N[C@@H](CC(C)C)C(=O)N[C@@H](CC(C)C)C(=O)N[C@@H](Cc1c[nH]c2ccccc12)C(=O)N[C@@H](CSS[C@H](C)COC(=O)N(C)Cc1ccc(-c2[nH]c3cc(F)cc4c3c2CCNC4=O)cc1)C(=O)NCC(=O)O)[C@@H](C)O)[C@@H](C)O [Example 18] | 2400 nM |
| CC[C@H](C)[C@H](NC(=O)[C@@H]1CCCN1C(=O)[C@H](CC(N)=O)NC(=O)[C@H](CCC(N)=O)NC(=O)[C@H](CCC(=O)O)NC(=O)[C@H](C)N)C(=O)N[C@@H](Cc1ccc(O)cc1)C(=O)N[C@@H](Cc1c[nH]c2ccccc12)C(=O)N[C@@H](C)C(=O)N[C@@H](CCCNC(=N)N)C(=O)N[C@@H](Cc1ccc(O)cc1)C(=O)N[C@@H](C)C(=O)N[C@@H](CC(=O)O)C(=O)N[C@@H](Cc1c[nH]c2ccccc12)C(=O)N[C@@H](CC(C)C)C(=O)N[C@@H](Cc1ccccc1)C(=O)N[C@H](C(=O)N[C@H](C(=O)N1CCC[C@H]1C(=O)N[C@@H](CC(C)C)C(=O)N[C@@H](CC(C)C)C(=O)N[C@@H](CC(C)C)C(=O)N[C@@H](CC(C)C)C(=O)N[C@@H](CC(=O)O)C(=O)N[C@@H](CC(C)C)C(=O)N[C@@H](C)C(=O)N[C@@H](CC(C)C)C(=O)N[C@@H](CC(C)C)C(=O)N[C@H](C(=O)N[C@@H](CC(=O)O)C(=O)N[C@@H](C)C(=O)N[C@@H](CC(=O)O)C(=O)N[C@@H](CCC(=O)O)C(=O)N[C@@H](CSS[C@H](C)COC(=O)N(C)Cc1ccc(-c2[nH]c3cc(F)cc4c3c2CCNC4=O)cc1)C(=O)NCC(=O)O)C(C)C)[C@@H](C)O)[C@@H](C)O [Example 19] (H-AEQNPIYWARYADWLFTTPLLLLDLALLVDADEC(X12)G-OH; N-terminus and C-terminus assumed) | 2380 nM |
| CC(C)C[C@H](NC(=O)[C@H](Cc1ccc(O)cc1)NC(=O)[C@H](C)NC(=O)[C@H](CCCNC(=N)N)NC(=O)[C@H](Cc1c[nH]c2ccccc12)NC(=O)[C@@H]1CCCN1C(=O)[C@H](CC(N)=O)NC(=O)[C@H](CCC(N)=O)NC(=O)[C@H](CC(=O)O)NC(=O)[C@H](CC(=O)O)NC(=O)[C@H](C)N)C(=O)N[C@@H](CC(=O)O)C(=O)N[C@@H](CC(C)C)C(=O)N[C@@H](CC(C)C)C(=O)N[C@@H](Cc1ccccc1)C(=O)N1CCC[C@H]1C(=O)N[C@H](C(=O)N[C@@H](CC(=O)O)C(=O)N[C@H](C(=O)N[C@@H](CC(C)C)C(=O)N[C@@H](CC(C)C)C(=O)N[C@@H](CC(C)C)C(=O)N[C@@H](CC(=O)O)C(=O)N[C@@H](CC(C)C)C(=O)N[C@@H](CC(C)C)C(=O)N[C@@H](Cc1c[nH]c2ccccc12)C(=O)N[C@@H](CSS[C@@H](C)COC(=O)N(C)Cc1ccc(-c2[nH]c3cc(F)cc4c3c2CCNC4=O)cc1)C(=O)NCC(=O)O)[C@@H](C)O)[C@@H](C)O [Example 21] | 3540 nM |
| CC[C@H](C)[C@H](NC(=O)[C@@H]1CCCN1C(=O)[C@H](CC(N)=O)NC(=O)[C@H](CCC(N)=O)NC(=O)[C@H](CCC(=O)O)NC(=O)[C@H](C)N)C(=O)N[C@@H](Cc1ccc(O)cc1)C(=O)N[C@@H](Cc1c[nH]c2ccccc12)C(=O)N[C@@H](C)C(=O)N[C@@H](CCCNC(=N)N)C(=O)N[C@@H](Cc1ccc(O)cc1)C(=O)N[C@@H](C)C(=O)N[C@@H](CC(=O)O)C(=O)N[C@@H](Cc1c[nH]c2ccccc12)C(=O)N[C@@H](CC(C)C)C(=O)N[C@@H](Cc1ccccc1)C(=O)N[C@H](C(=O)N[C@H](C(=O)N1CCC[C@H]1C(=O)N[C@@H](CC(C)C)C(=O)N[C@@H](CC(C)C)C(=O)N[C@@H](CC(C)C)C(=O)N[C@@H](CC(C)C)C(=O)N[C@@H](CC(=O)O)C(=O)N[C@@H](CC(C)C)C(=O)N[C@@H](C)C(=O)N[C@@H](CC(C)C)C(=O)N[C@@H](CC(C)C)C(=O)N[C@H](C(=O)N[C@@H](CC(=O)O)C(=O)N[C@@H](C)C(=O)N[C@@H](CC(=O)O)C(=O)N[C@@H](CCC(=O)O)C(=O)N[C@@H](CSS[C@@H](C)COC(=O)N(C)Cc1ccc(-c2[nH]c3cc(F)cc4c3c2CCNC4=O)cc1)C(=O)NCC(=O)O)C(C)C)[C@@H](C)O)[C@@H](C)O [Example 22] (H-AEQNPIYWARYADWLFTTPLLLLDLALLVDADEC(X9)G-OH; N-terminus and C-terminus assumed) | 3880 nM |
| CC(C)C[C@H](NC(=O)[C@H](Cc1ccc(O)cc1)NC(=O)[C@H](C)NC(=O)[C@H](CCCNC(=N)N)NC(=O)[C@H](Cc1c[nH]c2ccccc12)NC(=O)[C@@H]1CCCN1C(=O)[C@H](CC(N)=O)NC(=O)[C@H](CCC(N)=O)NC(=O)[C@H](CC(=O)O)NC(=O)[C@H](CC(=O)O)NC(=O)[C@H](C)N)C(=O)N[C@@H](CC(=O)O)C(=O)N[C@@H](CC(C)C)C(=O)N[C@@H](CC(C)C)C(=O)N[C@@H](Cc1ccccc1)C(=O)N1CCC[C@H]1C(=O)N[C@H](C(=O)N[C@@H](CC(=O)O)C(=O)N[C@H](C(=O)N[C@@H](CC(C)C)C(=O)N[C@@H](CC(C)C)C(=O)N[C@@H](CC(C)C)C(=O)N[C@@H](CC(=O)O)C(=O)N[C@@H](CC(C)C)C(=O)N[C@@H](CC(C)C)C(=O)N[C@@H](Cc1c[nH]c2ccccc12)C(=O)N[C@@H](CC(=O)O)C(=O)N[C@@H](C)C(=O)N[C@@H](CC(=O)O)C(=O)N[C@@H](CCC(=O)O)C(=O)N[C@@H](CSS[C@@H](C)COC(=O)N(C)Cc1ccc(-c2[nH]c3cc(F)cc4c3c2CCNC4=O)cc1)C(=O)NCC(=O)O)[C@@H](C)O)[C@@H](C)O [Example 23] | 1420 nM |
| CC[C@H](C)[C@H](NC(=O)[C@@H]1CCCN1C(=O)[C@H](CC(N)=O)NC(=O)[C@H](CCC(N)=O)NC(=O)[C@H](CCC(=O)O)NC(=O)[C@H](C)N)C(=O)N[C@@H](Cc1ccc(O)cc1)C(=O)N[C@@H](Cc1c[nH]c2ccccc12)C(=O)N[C@@H](C)C(=O)N[C@@H](CCCNC(=N)N)C(=O)N[C@@H](Cc1ccc(O)cc1)C(=O)N[C@@H](C)C(=O)N[C@@H](CC(=O)O)C(=O)N[C@@H](Cc1c[nH]c2ccccc12)C(=O)N[C@@H](CC(C)C)C(=O)N[C@@H](Cc1ccccc1)C(=O)N[C@H](C(=O)N[C@H](C(=O)N1CCC[C@H]1C(=O)N[C@@H](CC(C)C)C(=O)N[C@@H](CC(C)C)C(=O)N[C@@H](CC(C)C)C(=O)N[C@@H](CC(C)C)C(=O)N[C@@H](CC(=O)O)C(=O)N[C@@H](CC(C)C)C(=O)N[C@@H](C)C(=O)N[C@@H](CC(C)C)C(=O)N[C@@H](CC(C)C)C(=O)N[C@H](C(=O)N[C@@H](CC(=O)O)C(=O)N[C@@H](C)C(=O)N[C@@H](CC(=O)O)C(=O)N[C@@H](CCC(=O)O)C(=O)N[C@@H](CSSc1ccc(COC(=O)N(C)Cc2ccc(-c3[nH]c4cc(F)cc5c4c3CCNC5=O)cc2)cc1C)C(=O)NCC(=O)O)C(C)C)[C@@H](C)O)[C@@H](C)O [Example 29] (H-AEQNPIYWARYADWLFTTPLLLLDLALLVDADEC(X10)G-OH; N-terminus and C-terminus assumed) | 1310 nM |
| CC[C@H](C)[C@H](NC(=O)[C@@H]1CCCN1C(=O)[C@H](CC(N)=O)NC(=O)[C@H](CCC(N)=O)NC(=O)[C@H](CCC(=O)O)NC(=O)[C@H](C)N)C(=O)N[C@@H](Cc1ccc(O)cc1)C(=O)N[C@@H](Cc1c[nH]c2ccccc12)C(=O)N[C@@H](C)C(=O)N[C@@H](CCCNC(=N)N)C(=O)N[C@@H](Cc1ccc(O)cc1)C(=O)N[C@@H](C)C(=O)N[C@@H](CC(=O)O)C(=O)N[C@@H](Cc1c[nH]c2ccccc12)C(=O)N[C@@H](CC(C)C)C(=O)N[C@@H](Cc1ccccc1)C(=O)N[C@H](C(=O)N[C@H](C(=O)N1CCC[C@H]1C(=O)N[C@@H](CC(C)C)C(=O)N[C@@H](CC(C)C)C(=O)N[C@@H](CC(C)C)C(=O)N[C@@H](CC(C)C)C(=O)N[C@@H](CC(=O)O)C(=O)N[C@@H](CC(C)C)C(=O)N[C@@H](C)C(=O)N[C@@H](CC(C)C)C(=O)N[C@@H](CC(C)C)C(=O)N[C@H](C(=O)N[C@@H](CC(=O)O)C(=O)N[C@@H](C)C(=O)N[C@@H](CC(=O)O)C(=O)N[C@@H](CCC(=O)O)C(=O)N[C@@H](CSSc1ccc(COC(=O)N(C)Cc2ccc(-c3[nH]c4cc(F)cc5c4c3CCNC5=O)cc2)c(C)c1)C(=O)NCC(=O)O)C(C)C)[C@@H](C)O)[C@@H](C)O [Example 30] (H-AEQNPIYWARYADWLFTTPLLLLDLALLVDADEC(X15)G-OH; N-terminus and C-terminus assumed) | 497 nM |
| CC[C@H](C)[C@H](NC(=O)[C@@H]1CCCN1C(=O)[C@H](CC(N)=O)NC(=O)[C@H](CCC(N)=O)NC(=O)[C@H](CCC(=O)O)NC(=O)[C@H](C)N)C(=O)N[C@@H](Cc1ccc(O)cc1)C(=O)N[C@@H](Cc1c[nH]c2ccccc12)C(=O)N[C@@H](C)C(=O)N[C@@H](CCCNC(=N)N)C(=O)N[C@@H](Cc1ccc(O)cc1)C(=O)N[C@@H](C)C(=O)N[C@@H](CC(=O)O)C(=O)N[C@@H](Cc1c[nH]c2ccccc12)C(=O)N[C@@H](CC(C)C)C(=O)N[C@@H](Cc1ccccc1)C(=O)N[C@H](C(=O)N[C@H](C(=O)N1CCC[C@H]1C(=O)N[C@@H](CC(C)C)C(=O)N[C@@H](CC(C)C)C(=O)N[C@@H](CC(C)C)C(=O)N[C@@H](CC(C)C)C(=O)N[C@@H](CC(=O)O)C(=O)N[C@@H](CC(C)C)C(=O)N[C@@H](C)C(=O)N[C@@H](CC(C)C)C(=O)N[C@@H](CC(C)C)C(=O)N[C@H](C(=O)N[C@@H](CC(=O)O)C(=O)N[C@@H](C)C(=O)N[C@@H](CC(=O)O)C(=O)N[C@@H](CCC(=O)O)C(=O)N[C@@H](CSSc1c(C)cc(COC(=O)N(C)Cc2ccc(-c3[nH]c4cc(F)cc5c4c3CCNC5=O)cc2)cc1C)C(=O)NCC(=O)O)C(C)C)[C@@H](C)O)[C@@H](C)O [Example 31] (H-AEQNPIYWARYADWLFTTPLLLLDLALLVDADEC(X13)G-OH; N-terminus and C-terminus assumed) | 1140 nM |

Reference: patent US12427157B2, “Methods for treatment of diseases involving acidic or hypoxic diseased tissues” (Cybrexa 1, Inc., priority 2018, dated 2025)
